According to the supplement of paper PMC11876631:
± gives the standard deviation of the averaged measurements. Laboratory Escherichia coli strains with one amino-acid change in an essential protein, pooled on minimal glucose agar with carbenicillin or gentamicin at twice the control MIC (plus kanamycin and chloramphenicol for the plasmids), 48 h. Fold change of barcode share against drug-free plates; higher = less susceptible. Active = above 20 in both replicates (the paper's putatively resistant). '<' = one read or none on drug, '>' = one read or none on a drug-free plate. Shares are relative, so most strains fall below 1 when a few take over. Listed are strains with at least 15 reads on both drug-free plates, and hits; most hits rest on fewer reference reads. Replicate rank correlation about 0.5. Edits are read from barcodes.

B1: lptA L45Q (protein)
chain: MKFKTNKLSLNLVLASSLLAASIPAFAVTGDTDQPIHIESDQQSQDMQGNVVTFTGNVIVTQGTIKINADKVVVTRPGGEQGKEVIDGYGKPATFYQMQDNGKPVEGHASQMHYELAKDFVVLTGNAYLQQVDSNIKGDKITYLVKEQKMQAFSDKGKRVTTVLVPSQLQDKNNKGQTPAQKKGN
B2: lptA L45P (protein)
chain: MKFKTNKLSLNLVLASSLLAASIPAFAVTGDTDQPIHIESDQQSPDMQGNVVTFTGNVIVTQGTIKINADKVVVTRPGGEQGKEVIDGYGKPATFYQMQDNGKPVEGHASQMHYELAKDFVVLTGNAYLQQVDSNIKGDKITYLVKEQKMQAFSDKGKRVTTVLVPSQLQDKNNKGQTPAQKKGN
B3: lptA I67A (protein)
chain: MKFKTNKLSLNLVLASSLLAASIPAFAVTGDTDQPIHIESDQQSLDMQGNVVTFTGNVIVTQGTIKANADKVVVTRPGGEQGKEVIDGYGKPATFYQMQDNGKPVEGHASQMHYELAKDFVVLTGNAYLQQVDSNIKGDKITYLVKEQKMQAFSDKGKRVTTVLVPSQLQDKNNKGQTPAQKKGN
B4: lptA I67Q (protein)
chain: MKFKTNKLSLNLVLASSLLAASIPAFAVTGDTDQPIHIESDQQSLDMQGNVVTFTGNVIVTQGTIKQNADKVVVTRPGGEQGKEVIDGYGKPATFYQMQDNGKPVEGHASQMHYELAKDFVVLTGNAYLQQVDSNIKGDKITYLVKEQKMQAFSDKGKRVTTVLVPSQLQDKNNKGQTPAQKKGN
B5: lptA V74A (protein)
chain: MKFKTNKLSLNLVLASSLLAASIPAFAVTGDTDQPIHIESDQQSLDMQGNVVTFTGNVIVTQGTIKINADKVVATRPGGEQGKEVIDGYGKPATFYQMQDNGKPVEGHASQMHYELAKDFVVLTGNAYLQQVDSNIKGDKITYLVKEQKMQAFSDKGKRVTTVLVPSQLQDKNNKGQTPAQKKGN
B6: lptA V74W (protein)
chain: MKFKTNKLSLNLVLASSLLAASIPAFAVTGDTDQPIHIESDQQSLDMQGNVVTFTGNVIVTQGTIKINADKVVWTRPGGEQGKEVIDGYGKPATFYQMQDNGKPVEGHASQMHYELAKDFVVLTGNAYLQQVDSNIKGDKITYLVKEQKMQAFSDKGKRVTTVLVPSQLQDKNNKGQTPAQKKGN
B7: lptA V74Q (protein)
chain: MKFKTNKLSLNLVLASSLLAASIPAFAVTGDTDQPIHIESDQQSLDMQGNVVTFTGNVIVTQGTIKINADKVVQTRPGGEQGKEVIDGYGKPATFYQMQDNGKPVEGHASQMHYELAKDFVVLTGNAYLQQVDSNIKGDKITYLVKEQKMQAFSDKGKRVTTVLVPSQLQDKNNKGQTPAQKKGN
B8: aroC M341A (protein)
chain: MAGNTIGQLFRVTTFGESHGLALGCIVDGVPPGIPLTEADLQHDLDRRRPGTSRYTTQRREPDQVKILSGVFEGVTTGTSIGLLIENTDQRSQDYSAIKDVFRPGHADYTYEQKYGLRDYRGGGRSSARETAMRVAAGAIAKKYLAEKFGIEIRGCLTQMGDIPLDIKDWSQVEQNPFFCPDPDKIDALDELMRALKKEGDSIGAKVTVVASGVPAGLGEPVFDRLDADIAHALMSINAVKGVEIGDGFDVVALRGSQNRDEITKDGFQSNHAGGILGGISSGQQIIAHMALKPTSSITVPGRTINRFGEEVEMITKGRHDPCVGIRAVPIAEAMLAIVLADHLLRQRAQNADVKTDIPRW
B9: aroC M341Q (protein)
chain: MAGNTIGQLFRVTTFGESHGLALGCIVDGVPPGIPLTEADLQHDLDRRRPGTSRYTTQRREPDQVKILSGVFEGVTTGTSIGLLIENTDQRSQDYSAIKDVFRPGHADYTYEQKYGLRDYRGGGRSSARETAMRVAAGAIAKKYLAEKFGIEIRGCLTQMGDIPLDIKDWSQVEQNPFFCPDPDKIDALDELMRALKKEGDSIGAKVTVVASGVPAGLGEPVFDRLDADIAHALMSINAVKGVEIGDGFDVVALRGSQNRDEITKDGFQSNHAGGILGGISSGQQIIAHMALKPTSSITVPGRTINRFGEEVEMITKGRHDPCVGIRAVPIAEAMLAIVLQDHLLRQRAQNADVKTDIPRW
B10: lptG I19A (protein)
chain: MQPFGVLDRYIGKTIFTTAMMTLFMLVSLSGIIKFVDQLKKAGQGSYDALGAGMYTLLSVPKDVQIFFPMAALLGALLGLGMLAQRSELVVMQASGFTRMQVALSVMKTAIPLVLLTMAIGEWVAPQGEQMARNYRAQAMYGGSLLSTQQGLWAKDGNNFVYIERVKGDEELGGISIYAFNENRRLQSVRYAATAKFDPEHKVWRLSQVDESDLTNPKQITGSQTVSGTWKTNLTPDKLGVVALDPDALSISGLHNYVKYLKSSGQDAGRYQLNMWSKIFQPLSVAVMMLMALSFIFGPLRSVPMGVRVVTGISFGFVFYVLDQIFGPLTLVYGIPPIIGALLPSASFFLISLWLLMRKS
B11: lptG I19W (protein)
chain: MQPFGVLDRYIGKTIFTTWMMTLFMLVSLSGIIKFVDQLKKAGQGSYDALGAGMYTLLSVPKDVQIFFPMAALLGALLGLGMLAQRSELVVMQASGFTRMQVALSVMKTAIPLVLLTMAIGEWVAPQGEQMARNYRAQAMYGGSLLSTQQGLWAKDGNNFVYIERVKGDEELGGISIYAFNENRRLQSVRYAATAKFDPEHKVWRLSQVDESDLTNPKQITGSQTVSGTWKTNLTPDKLGVVALDPDALSISGLHNYVKYLKSSGQDAGRYQLNMWSKIFQPLSVAVMMLMALSFIFGPLRSVPMGVRVVTGISFGFVFYVLDQIFGPLTLVYGIPPIIGALLPSASFFLISLWLLMRKS
B12: lptG I19Q (protein)
chain: MQPFGVLDRYIGKTIFTTQMMTLFMLVSLSGIIKFVDQLKKAGQGSYDALGAGMYTLLSVPKDVQIFFPMAALLGALLGLGMLAQRSELVVMQASGFTRMQVALSVMKTAIPLVLLTMAIGEWVAPQGEQMARNYRAQAMYGGSLLSTQQGLWAKDGNNFVYIERVKGDEELGGISIYAFNENRRLQSVRYAATAKFDPEHKVWRLSQVDESDLTNPKQITGSQTVSGTWKTNLTPDKLGVVALDPDALSISGLHNYVKYLKSSGQDAGRYQLNMWSKIFQPLSVAVMMLMALSFIFGPLRSVPMGVRVVTGISFGFVFYVLDQIFGPLTLVYGIPPIIGALLPSASFFLISLWLLMRKS
B13: lptG I19D (protein)
chain: MQPFGVLDRYIGKTIFTTDMMTLFMLVSLSGIIKFVDQLKKAGQGSYDALGAGMYTLLSVPKDVQIFFPMAALLGALLGLGMLAQRSELVVMQASGFTRMQVALSVMKTAIPLVLLTMAIGEWVAPQGEQMARNYRAQAMYGGSLLSTQQGLWAKDGNNFVYIERVKGDEELGGISIYAFNENRRLQSVRYAATAKFDPEHKVWRLSQVDESDLTNPKQITGSQTVSGTWKTNLTPDKLGVVALDPDALSISGLHNYVKYLKSSGQDAGRYQLNMWSKIFQPLSVAVMMLMALSFIFGPLRSVPMGVRVVTGISFGFVFYVLDQIFGPLTLVYGIPPIIGALLPSASFFLISLWLLMRKS
B14: lptG V64A (protein)
chain: MQPFGVLDRYIGKTIFTTIMMTLFMLVSLSGIIKFVDQLKKAGQGSYDALGAGMYTLLSVPKDAQIFFPMAALLGALLGLGMLAQRSELVVMQASGFTRMQVALSVMKTAIPLVLLTMAIGEWVAPQGEQMARNYRAQAMYGGSLLSTQQGLWAKDGNNFVYIERVKGDEELGGISIYAFNENRRLQSVRYAATAKFDPEHKVWRLSQVDESDLTNPKQITGSQTVSGTWKTNLTPDKLGVVALDPDALSISGLHNYVKYLKSSGQDAGRYQLNMWSKIFQPLSVAVMMLMALSFIFGPLRSVPMGVRVVTGISFGFVFYVLDQIFGPLTLVYGIPPIIGALLPSASFFLISLWLLMRKS
B15: lptG V64W (protein)
chain: MQPFGVLDRYIGKTIFTTIMMTLFMLVSLSGIIKFVDQLKKAGQGSYDALGAGMYTLLSVPKDWQIFFPMAALLGALLGLGMLAQRSELVVMQASGFTRMQVALSVMKTAIPLVLLTMAIGEWVAPQGEQMARNYRAQAMYGGSLLSTQQGLWAKDGNNFVYIERVKGDEELGGISIYAFNENRRLQSVRYAATAKFDPEHKVWRLSQVDESDLTNPKQITGSQTVSGTWKTNLTPDKLGVVALDPDALSISGLHNYVKYLKSSGQDAGRYQLNMWSKIFQPLSVAVMMLMALSFIFGPLRSVPMGVRVVTGISFGFVFYVLDQIFGPLTLVYGIPPIIGALLPSASFFLISLWLLMRKS
B16: aroC M133D (protein)
chain: MAGNTIGQLFRVTTFGESHGLALGCIVDGVPPGIPLTEADLQHDLDRRRPGTSRYTTQRREPDQVKILSGVFEGVTTGTSIGLLIENTDQRSQDYSAIKDVFRPGHADYTYEQKYGLRDYRGGGRSSARETADRVAAGAIAKKYLAEKFGIEIRGCLTQMGDIPLDIKDWSQVEQNPFFCPDPDKIDALDELMRALKKEGDSIGAKVTVVASGVPAGLGEPVFDRLDADIAHALMSINAVKGVEIGDGFDVVALRGSQNRDEITKDGFQSNHAGGILGGISSGQQIIAHMALKPTSSITVPGRTINRFGEEVEMITKGRHDPCVGIRAVPIAEAMLAIVLMDHLLRQRAQNADVKTDIPRW

Target: Escherichia coli (laboratory strain)
Test: barcode share on antibiotic plates over drug-free plates; higher = less susceptible
Description: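 A pool of E. coli strains, each edited to carry one amino-acid change in an essential protein, was grown for 48 h on minimal glucose agar with or without antibiotic; strain barcodes were sequenced; mean of two replicates.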

[1] = antibiotic: carbenicillin, 2× MIC (3.1 µg/mL)
[2] = antibiotic: gentamicin, 2× MIC (MIC 0.45 µg/mL)

Protein | fold change of barcode share [1] | fold change of barcode share [2]
B1 | 0.211 ± 0.088 | 0.0157 ± 0.012
B2 | 0.207 ± 0.22 | 0.175 ± 0.22
B3 | 0.198 ± 0.12 | < 0.0156
B4 | 0.182 ± 0.042 | < 0.0195
B5 | 0.167 ± 0.024 | < 0.00474
B6 | 0.265 ± 0.11 | 0.0134 ± 0.0092
B7 | 0.287 ± 0.018 | < 0.00692
B8 | 0.316 ± 0.097 | < 0.00744
B9 | 0.865 ± 0.42 | –
B10 | 0.355 ± 0.091 | 0.0196 ± 0.0048
B11 | 0.594 ± 0.067 | < 0.00713
B12 | 0.214 ± 0.077 | < 0.00943
B13 | 0.32 ± 0.044 | –
B14 | 0.495 ± 0.087 | 0.0178 ± 0.0046
B15 | 0.406 ± 0.12 | 0.00661 ± 0.0017
B16 | 0.67 ± 0.17 | < 0.00466
